Assay results as given in the BET-seq Pho4 binding data (Le et al. 2018).
The list shows a part of the results. Values were computed here from the reads of four pooled replicates and scatter widely.

Biological target: T1, Pho4 (S. cerevisiae) (UniProt P07270)
T1 sequence: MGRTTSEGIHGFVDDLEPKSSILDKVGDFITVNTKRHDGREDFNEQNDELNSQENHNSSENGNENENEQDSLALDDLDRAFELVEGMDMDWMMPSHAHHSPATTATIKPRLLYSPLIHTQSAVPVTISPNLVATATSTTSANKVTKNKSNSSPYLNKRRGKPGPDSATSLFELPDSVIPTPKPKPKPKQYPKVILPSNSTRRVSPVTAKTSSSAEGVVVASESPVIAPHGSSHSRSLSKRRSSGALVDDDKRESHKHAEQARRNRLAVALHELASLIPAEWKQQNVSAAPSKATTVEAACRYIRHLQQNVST
Assay: relative binding free energy (BET-seq); higher = weaker binding
Settings: reference: library average

Row | Sequence | relative binding free energy [kJ/mol]
1 | ATAATCACGTGAGAGG | 0.795
2 | GGGGGCACGTGTCTTT | -0.962
3 | TGTTTCACGTGAATTC | 2.09
4 | ATTTCCACGTGGGGCG | -0.418
5 | TATATCACGTGGCGGT | 0.335
6 | TGTCCCACGTGGGGTG | -1.21
7 | TACCGCACGTGTGGGG | 0.126
8 | TGAGTCACGTGGAGAG | 0.669
9 | AAAGGCACGTGGTGTC | -0.628
10 | ATTGTCACGTGAACGG | 1.05
11 | CTTGGCACGTGATATA | 0.0837
12 | ACTTTCACGTGTCTGG | 1.92
13 | GAGTTCACGTGGATTG | 0.92
14 | ATGGGCACGTGATACT | 0.126
15 | GGCGGCACGTGTTTTA | -0.335
16 | ATTTGCACGTGGCGTC | -0.0418
17 | TCAGACACGTGTTGTG | 0.209
18 | CATATCACGTGGGGGT | 0.167
19 | CTGGGCACGTGAGGAT | 0.418
20 | CCTTGCACGTGTATGT | 0.46
21 | TTGGGCACGTGGGGAC | -0.711
22 | GGTATCACGTGAATGT | 0.837
23 | TTTATCACGTGTAGTT | 0.795
24 | AAGTACACGTGGTGTG | -0.126
25 | GCGATCACGTGTTGGA | 1

Row | Sequence | relative binding free energy [kJ/mol]
26 | TGTTTCACGTGGTGAT | 1.05
27 | CTGGTCACGTGGAAGG | 0.837
28 | TTCGTCACGTGGGTTG | 0
29 | GGGGGCACGTGAGAAA | 0.502
30 | GGATGCACGTGGTTAC | 0.377
31 | GGGGACACGTGCAAGT | 0.167
32 | AGAGTCACGTGGTTTA | -0.0418
33 | ATGTTCACGTGGTCCG | 1
34 | GTGCGCACGTGAGGCG | 0.753
35 | GAAGGCACGTGTCGGG | -0.0418
36 | TTTCGCACGTGAGAGA | 1.46
37 | TTATTCACGTGGACAG | 0.92
38 | TATTTCACGTGTTGTA | 0.502
39 | GTGAGCACGTGGCTGG | -0.377
40 | TCTTACACGTGATTTG | 0.586
41 | ATAGGCACGTGGAGAA | -0.0837
42 | GTGGGCACGTGAATGG | 0.628
43 | GTTATCACGTGAAGAG | 1.59
44 | TGAGTCACGTGCGTGT | 0.209
45 | GCAGTCACGTGTGGTA | 0.962
46 | TATTGCACGTGGGATC | -0.418
47 | GACAGCACGTGGTGGT | -0.753
48 | AGCGACACGTGGGGTG | -0.628
49 | GTGCGCACGTGGTGCG | -0.837
50 | TAAGTCACGTGGCTGG | 0.251

Row | Sequence | relative binding free energy [kJ/mol]
51 | TTGCTCACGTGGAATT | 1.46
52 | GTACGCACGTGGTGCG | -0.126
53 | GTGCGCACGTGGGTAG | -1.05
54 | ATTAGCACGTGAGATG | 1.34
55 | GAACGCACGTGTGGTG | -0.293
56 | GAGAGCACGTGTATGT | -0.418
57 | TGGGTCACGTGATTCT | 1.17
58 | TGCTACACGTGAGTGG | 0.795
59 | GGAATCACGTGTATTT | 1.05
60 | TTGGTCACGTGGAAGC | 0.586
61 | ATGAGCACGTGAGCGG | 0
62 | AATTCCACGTGGTTGG | 0.46
63 | TAAAGCACGTGGTGTT | -1.09
64 | CGTTTCACGTGAGTGC | 1.34
65 | AAGGCCACGTGGTGTA | -0.209
66 | TGCGTCACGTGTGATG | 0.586
67 | GGCTGCACGTGGGGGT | -0.544
68 | TTGGACACGTGGTTAG | 0.335
69 | AGTTACACGTGTATTA | 0.209
70 | TATATCACGTGATCGG | 0.586
71 | TCCGTCACGTGGATGT | 0.293
72 | TGTCGCACGTGCTGTG | -0.502
73 | CTAGTCACGTGTAGTG | 0.209
74 | TGAAACACGTGGGGCG | -0.544
75 | CCGTGCACGTGGGAGT | -0.335

Row | Sequence | relative binding free energy [kJ/mol]
76 | GTTTACACGTGGTTGA | 0.669
77 | TCGTGCACGTGTGTTG | 0.0418
78 | TAAGGCACGTGTGTTA | -0.251
79 | GGAGTCACGTGTGTGA | 0.167
80 | TATCTCACGTGGTGGG | 0.669
81 | GGGGGCACGTGGATAC | -0.46
82 | GATGTCACGTGGTGGC | 0.418
83 | TGATGCACGTGCAGTA | -0.0837
84 | TGTTGCACGTGGCCGT | -0.126
85 | GAGGTCACGTGGACGT | 0.669
86 | TGATTCACGTGCAGTG | 0.92
87 | GGTTTCACGTGATGAT | 1.21
88 | GGGTCCACGTGTAGTA | 0.711
89 | GTTACCACGTGGTTTA | 0
90 | TTGTTCACGTGCGCTT | 0.502
91 | TGTATCACGTGGGCAT | 0.167
92 | ACTCGCACGTGTAGGT | 0
93 | GATATCACGTGTTAGA | 1.42
94 | TTTTTCACGTGCGGTT | 1.17
95 | GGAGTCACGTGTTCTT | 0.46
96 | TAAGTCACGTGGGGCA | -0.167
97 | CGTTGCACGTGGTCTT | -0.0418
98 | TGGATCACGTGTGTGC | 0.795
99 | TCTATCACGTGTTGTG | 0.0418
100 | CGGTTCACGTGGGGGG | 0.669

Row | Sequence | relative binding free energy [kJ/mol]
101 | TAGAACACGTGTGTGA | -0.126
102 | AATGGCACGTGAAGTG | 0.126
103 | AAAGTCACGTGTGTCT | 0.502
104 | GTGTTCACGTGCCGGT | 1
105 | GGTCGCACGTGTAGGC | 0.418
106 | GGTATCACGTGAACGG | 1.34
107 | ATGAGCACGTGTTATT | -0.502
108 | GGGTGCACGTGATCGA | 0.377
109 | GTCTTCACGTGGTGGT | 1.46
110 | TTAAGCACGTGGGGAG | -0.753
111 | TGGGACACGTGAAGTG | 1.34
112 | GGGGGCACGTGAGTGA | 0.628
113 | AAAGGCACGTGGTTCT | -0.544
114 | TAAACCACGTGGGTGG | -1.05
115 | CAGTTCACGTGGGGGA | 0.795
116 | GGGCGCACGTGTAAGT | -0.209
117 | AGAAGCACGTGGCGTT | -0.502
118 | GGACGCACGTGAGTGT | 1.26
119 | GAGGGCACGTGCAGGG | -0.46
120 | ATAGTCACGTGAGGCG | 0.544
121 | GACGTCACGTGTTGTG | 1
122 | AGGAGCACGTGAGCGA | 1
123 | GGAAGCACGTGGGGGC | -0.962
124 | TTGTTCACGTGTATTT | 1.3
125 | GGGCTCACGTGATCTG | 1.38

Row | Sequence | relative binding free energy [kJ/mol]
126 | ATAATCACGTGGGTAG | 0.335
127 | CGGTCCACGTGTTGGG | 0.0418
128 | GAGTTCACGTGAGGCG | 2.3
129 | CGGATCACGTGGGTGT | 0.335
130 | TGCGCCACGTGTGGTG | -0.377
131 | TGAGCCACGTGCGGGT | -0.753
132 | TGACTCACGTGAGGGG | 1.38
133 | TTGGTCACGTGACTGC | 1.17
134 | TTGTGCACGTGTGCCA | 0.502
135 | AGGTTCACGTGTTCAG | 1.34
136 | GGAATCACGTGTTTGG | 0.46
137 | ATTGGCACGTGGTGCA | -1
138 | TAGATCACGTGTAGGT | 0.795
139 | TGGTCCACGTGAGTGG | 1
140 | TATAGCACGTGAGGAA | 1
141 | ACGTGCACGTGTATGT | -0.502
142 | CGTTTCACGTGTTGTA | 0.962
143 | TAAGTCACGTGGCAGT | 0.0837
144 | TGATGCACGTGCATTG | -0.293
145 | GCTGACACGTGTTGGG | 0.377
146 | ATTGCCACGTGTAGGT | -0.335
